For 22 molecules, binding signal results are on record in paper PMC12136788.

Residue numbers refer to the chain shown, from its start. The list shows a part of the results.

Sequences and labels used below:
T1: UNK ZnF1-3 (human, UniProt Q9C0B0 31-174)
T1 sequence: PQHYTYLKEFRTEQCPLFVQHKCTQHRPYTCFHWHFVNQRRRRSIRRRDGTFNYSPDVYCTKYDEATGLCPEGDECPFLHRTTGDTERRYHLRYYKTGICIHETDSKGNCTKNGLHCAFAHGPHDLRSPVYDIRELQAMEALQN

B1: chr22:42032659:42032660:+_ENSG00000196419_ENST00000405878|hu_hu|motif|central (ssRNA)
RNA: GGGAGUUCUACAGUCCGACGAUCGUCUUCAUUGGUGAACAGCAUGAUCCUCUUAUGACUCAUCUUGAAUUGGACAUCACGGAAGAGGUUGGCACAGACCCACAGCACUUCACUGAGUGAGUAGUCAGAUCCGUGGCCCAUCAUCAACAGAGGAUUGAGCAUCA
B2: 92864098_92864218_87_5pUTR_ENSMUSG00000034826_ENSMUST00000038514|mouse|control|control (ssRNA)
RNA: GGGAGUUCUACAGUCCGACGAUCCGCGGGAGCAGCACUUAGAUGGCCCCGGGCUCGCGCGGCGCGACGCCCAGUGCCCUCCGCUCUUCUGUCCGGCUGGGAACCGUCAGGCGGUCCGUACCAUUAGUUCCGCCUCCUUCCCGGCAACAGAGGAUUGAGCAUCA
B3: chr5:56177553:56177554:+_ENSG00000095015_ENST00000399503|hu_hu|FALSE|FALSE (ssRNA)
RNA: GGGAGUUCUACAGUCCGACGAUCAUCUGCAAUAGCCAUCAAACGGCGACGCAUCCUGGUGAAGUGAGUGGAACUGGAAACACUCAGCAUUUCUAACAGUUUUGAAAACACAUGGGGUACUGUAGUAACCAUUCUUGCAGAACUCAACAGAGGAUUGAGCAUCA
B4: chr19:42259214:42259215:+_ENSMUSG00000018820_ENSMUST00000165783|mus_mus|motif|central (ssRNA)
RNA: GGGAGUUCUACAGUCCGACGAUCGCUAUAGUGACUGCUGCAGACUCAGAGACACUAGGAAAGUUGCAAGUGUAUAUUUUCGGUCGGAAUUUCUAACUAAAAUUUGCCCUGUUUUAUUCACUGGCCCAAAGGAUUCUUUUUUAACAACAGAGGAUUGAGCAUCA
B5: chr19:16212804:16212805:+_ENSG00000167460_ENST00000300933|hu_mus|hu_hu_hu_mus_False|88_98 (ssRNA)
RNA: GGGAGUUCUACAGUCCGACGAUCAACAAUUCUGGAGAAGAACAUCACAUCAAGGAUGAACAGCAUUAAAGCUCAGUCAGAAGGCACAUGGGCAACAAUGAUCACCCCAGCAUUCUCGCUUGGAAUGCUUAAAGACAAUCUGUUCAACAGAGGAUUGAGCAUCA
B6: chr2:103616161:103616162:-_ENSMUSG00000027184_ENSMUST00000111147|mus_mus|FALSE|FALSE (ssRNA)
RNA: GGGAGUUCUACAGUCCGACGAUCCUCAUCCACUUGCUCCUUCUCACCACUGCUGAACUGUGUUUCUGCCAUGAACUGCCUAUUGACAUACUCUGUUGAUUCAACCUCACUUUGCUCUGUGUAUUCUUCCGCUGGCUCAGGUUCCAACAGAGGAUUGAGCAUCA
B7: chr7:54825262:54825263:-_ENSG00000132432_ENST00000352861|hu_hu|hu_hu_hu_mus_False|38_88 (ssRNA)
RNA: GGGAGUUCUACAGUCCGACGAUCCUGCCGGCUGGGCUCCACAAACUUUACCUGAUCAUCCAUGUUUGUUGGAUGGCGGAUUGAGAGCGUAGAGACAACGUAGCACUGAGAGAACCGAGCCCAACGGAACCGGAAGCUGGCAACCAACAGAGGAUUGAGCAUCA
B8: chr8:104447970:104447971:+_ENSG00000164934_ENST00000297579|hu_hu|hu_hu_hu_mus_False|68_78 (ssRNA)
RNA: GGGAGUUCUACAGUCCGACGAUCAUACACUUCCCUGCUUCGGCUCUUGUCCACAGGAAAGAUUCGAAUAGAUUUAUCAAAGCUGGCAGACACAAAUUCCUUCCCAGUGGGAGAGUAGUCCACAUCAAGUACUGCAGACACGUGCAACAGAGGAUUGAGCAUCA
B9: chr1:156288723:156288724:-_ENSG00000163468_ENST00000295688|hu_mus|FALSE|FALSE (ssRNA)
RNA: GGGAGUUCUACAGUCCGACGAUCUCCUUUCUUGUACUCCAAAGAAGAAUCCAAUAGCACAAUUCGAGGAUUCUUAAUAUAGCGGCGCAUCCUUGGAUGGGUCACAUCCUUGUUAAUCAUAACUCCACGUAAGACACAUGAGUCCAACAGAGGAUUGAGCAUCA
B10: chr8:109707966:109707967:+_ENSMUSG00000031924_ENSMUST00000034400|mus_hu|FALSE|FALSE (ssRNA)
RNA: GGGAGUUCUACAGUCCGACGAUCUACUUAAAAGAAAAAUGGAAAAAUAAAACUUUCAACACUAGACUGCCGCCCUGUUAAGAAUGUCUAAUAUGCAAUCAAAGUAUUGGAAAGCAGGCAUUUUUACCAAAGAGCAAUGUCACUCAACAGAGGAUUGAGCAUCA
B11: chr15:40510687:40510688:+_ENSG00000156970_ENST00000287598|hu_hu|motif|central (ssRNA)
RNA: GGGAGUUCUACAGUCCGACGAUCCCAGAAGGACCCAUCCCAGAAGACCUGUAGGUGUUCCUUGAACAAUAGUAAAUGUGCGGAAUCUGCUAUACCAAACAGGUCUACCUGGUAGGGAGAAGAACAGUUAGCCAGGAUCUUUUGCAACAGAGGAUUGAGCAUCA
B12: 6284760_6284880_1203_3pUTR_ENSG00000116237_ENST00000343813|human|control|control (ssRNA)
RNA: GGGAGUUCUACAGUCCGACGAUCUGGAGUGUUGCUGAGGACAGAGUCCAUCUCUCCCAGCGAGUCCUGGUUAUCCUUUACUUACACUCUGGCCUCGGGGGCAGUGGCGUGUGGCCUCGGUCCUCCCCAGGUAACUCUGGAGGGCAACAGAGGAUUGAGCAUCA
B13: chr8:104447970:104447971:+_ENSG00000164934_ENST00000297579|hu_hu|hu_hu_hu_mus_False|8_58 (ssRNA)
RNA: B8 RNA with G65U, U72C, A78G, G81A, G84A, U129C
B14: chr1:114949673:114949674:-_ENSG00000197323_ENST00000358465|hu_mus|motif|central (ssRNA)
RNA: GGGAGUUCUACAGUCCGACGAUCGCAUAUCUCUUCUUCAGUCCCAGGUUCCUGCUUGACCUUCACCUGAUCAGACUUGAAACGGUGAGCACUUUUCUCAGCAGUUCUUCCUGAUGAUCCGCAGCUGCCUCGACUGCCAGUACUCAACAGAGGAUUGAGCAUCA
B15: chrX:140365796:140365797:-_ENSMUSG00000031285_ENSMUST00000033642|mus_mus|mus_mus_mus_hu_False|18_98 (ssRNA)
RNA: GGGAGUUCUACAGUCCGACGAUCCUUCUCAUUACUCAAUGCCUGCAAGGUUCUGGUUCGGUAGAAGCUACAGUGGGCGCUGUGAGUGGGGCUAGGCAACCCAUUCAUCCGGGAGCCUCUCAUAUUUCUGGAUGUCUUAUCUCUCAACAGAGGAUUGAGCAUCA
B16: chr19:3053611:3053612:-_ENSG00000104964_ENST00000327141|hu_hu|FALSE|FALSE (ssRNA)
RNA: GGGAGUUCUACAGUCCGACGAUCCUCCCAUCUGACCCUCCAGGCCUUAGCUUGCCUCACAUGUCAGGGCAGGUAUCCACCUAACCAGGCUGCAGGGGAGGAGGAGGGAAGCCGGGAAUGGGGUAGGAAGAAAGCUAGAGGUGGCAACAGAGGAUUGAGCAUCA
B17: chr19:38862671:38862672:-_ENSMUSG00000024999_ENSMUST00000025963|mus_mus|motif|central (ssRNA)
RNA: GGGAGUUCUACAGUCCGACGAUCCAGAAAGUAUUUACAUACACAUUUUGUAUUUGUAAGUCAUUUCUACAAUGAUAAUAGCGGUUAUAUAAAAUAGUUCUUUAUAACUAUUUAUAAACAUAUACAGUUUUUAUCUGUAAGAAUCAACAGAGGAUUGAGCAUCA
B18: chr1:58468927:58468928:-_ENSMUSG00000026034_ENSMUST00000148330|mus_mus|mus_mus_mus_hu_False|18_28 (ssRNA)
RNA: GGGAGUUCUACAGUCCGACGAUCAAUUACUGAAAAAGAUGUUCAUUACCUUAGCUAUGUACUUAAUGAACCAAAUUACCCAAACAAAAUAAACAUGGCAAUAUAAAAAGCUAUACAAAAUAACUUACUGUACAAAAUAACUUACAACAGAGGAUUGAGCAUCA
B19: chr16:13782116:13782117:+_ENSMUSG00000022682_ENSMUST00000023363|mus_hu|FALSE|FALSE (ssRNA)
RNA: GGGAGUUCUACAGUCCGACGAUCGACUUCUGUCACAGUUCCACCAAACCGAACAGUUUUUCUUGGGGGAGAAUUGAAAAAGUCAUUCUCUAAUGCACGCAUAUUUGAAAUCCCAGUCCUCGACGCGCCCAGCUUCUUAACUGCCAACAGAGGAUUGAGCAUCA
B20: chr11:87793471:87793472:-_ENSMUSG00000020483_ENSMUST00000020775|mus_mus|mus_mus_mus_hu_False|8_48 (ssRNA)
RNA: GGGAGUUCUACAGUCCGACGAUCUGGACUUGAAAAUAAAAGAAUAAGCUGGAUCCCCCACCCCCCCACAUUGUCAACCCUACACGAGUUCUGAAUGGGCGACUCAUGAAAAUCAGCAGCUCAAACGAAUGACAACCCCCCACCCAACAGAGGAUUGAGCAUCA
B21: 6498050_6498170_283_3pUTR_ENSMUSG00000033768_ENSMUST00000113458|mouse|control|control (ssRNA)
RNA: GGGAGUUCUACAGUCCGACGAUCGGGUGAAGCGAAGGAAAACCAGAGCCCGAGCCUCAGUCCGGAGCCAAGCAAAUCAACUGGAUCCCGCCGGGGAAUCCGGGGUACGCGCAGCGGGAAGGCCAAGGUCCGUGAAGCCUGGAUCAACAGAGGAUUGAGCAUCA
B22: chr9:114657494:114657495:+_ENSMUSG00000032434_ENSMUST00000035007|mus_mus|motif|central (ssRNA)
RNA: GGGAGUUCUACAGUCCGACGAUCGAUUGUCUCAGGUAUUUUGUUAUAGAAACAGUCAGCAGACUAAUAGUUGGUAACACGGAAGUAGCUCAGAUUUGCUGUUAAUUCUCAAUAGGUCUAAAUGAUAUUUACAGCACAGCUUGACAACAGAGGAUUGAGCAUCA

This assay concerns the target T1, UNK ZnF1-3. Briefly: nsRBNS (natural sequence RNA bind-n-seq); RBNS binding buffer (assumed for nsRBNS): 25 mM Tris pH 7.5, 150 mM KCl, 3 mM MgCl2, 0.01% Triton X-100, 500 ug/ml BSA, 20 U/ml SUPERase-In, 4 C; UNK is unkempt and MSI1 is Musashi-1; names of the RNAs are library labels; protein concentration not given here; high values mean tight binding.
For B1, the binding signal worked out at 1.32 enrichment R. B2 showed a binding signal of 0.338 enrichment R. For the molecule B3, the binding signal amounted to 1.01 enrichment R. As for B4, the figure is 0.985 enrichment R; as for B5, 1.27 enrichment R.

B6 returned a binding signal of 0.577 enrichment R. As for B7, the figure is 1.02 enrichment R; as for B8, 1.18 enrichment R; as for B9, 0.571 enrichment R. For B10 the value was 1.36 enrichment R; for B11, 0.4 enrichment R. As for B12, the binding signal is 0.747 enrichment R. Turning to B13, the binding signal amounted to 0.929 enrichment R. B14 returned a binding signal of 0.597 enrichment R. B15 returned a binding signal of 0.876 enrichment R. As for B16, the figure is 1.18 enrichment R; as for B17, 0.292 enrichment R. As for B18, the figure is 0.876 enrichment R; as for B19, 0.74 enrichment R; as for B20, 2.34 enrichment R. Consider B21, for which the binding signal turned out to be 1.35 enrichment R. For B22 the value was 1.09 enrichment R.
